# Experimental data from PubChem BioAssay AID1345082 (National Center for Advancing Translational Sciences (NCATS), 2018).
# Out of some 94,000 compounds screened, about 4,000 (4.3%) were called active. The shares of active, inactive and inconclusive entries below differ from those in the screen. The call rests on the fitted dose curve; in most records, active means well fitted inhibition curve with a large enough effect; inconclusive means small, poorly fitted or top-dose-only effect; inactive means no such curve, though single readings can be large or run the other way. Potencies of inconclusive entries are doubtful fits and often do not repeat.
# Assay: Cytotoxic Profiling in NIH 3T3 Cell Line of Diverse Libraries Using Quantitative High-Throughput Screening; further: nearly all actives have a fitted effect of over 55% in size
# Conditions: NIH 3T3 viability, CellTiter-Glo ATP luminescence, 48-72 h; series mostly up to 96.7 µM
# Method in brief: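 Luminescent ATP readout (CellTiter-Glo, 10 min RT) after 48 or 72 hr compound exposure of NIH 3T3 cells seeded at 400 cells/well in 1536-well format; quantitative HTS.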
# Potency means the concentration at half of the fitted maximal effect; tags describe the fitted curve by direction and shape.
row,SMILES,Potency
1,COc1ccc(-c2ccc3nnc(CNC(=O)c4cc(Cl)ccc4F)n3n2)cc1,"inconclusive: 12.6 µM [inhibitor, full curve, poor fit]"
2,Cn1ncc2c(C(=O)NC3CC3)cc(C(C)(C)C)nc21,"inconclusive: 50.1 µM [inhibitor, partial curve, poor fit]"
3,COc1cccc(CN2Cc3nc(OCc4ccc(F)cc4)ccc3OCC2=O)c1,"inconclusive: 89.1 µM [inhibitor, partial curve, poor fit]"
4,COc1ccc(CC(=O)NC2CCN(c3ccc4nnc(C)n4n3)C2)cc1 (configuration not stated),inactive
5,COCCOc1ncccc1-c1noc([C@@H]2CCCN2Cc2ccc(OC)cc2)n1,inactive
6,CCOC(=O)C(Cc1cccc(N2CC(Oc3ccccc3Cl)C2)c1F)OC (configuration not stated),inactive
7,CC1(CCCCc2ccccc2)COc2ccc(C(=O)Nc3cccnc3)cc2N1 (configuration not stated),"inconclusive: 44.7 µM [inhibitor, partial curve, poor fit]"
8,COC(=O)c1ccc(CN2C[C@@H]3C(C)(C)COc4ccc(OC)cc4[C@]3(CO)C2)cc1,"inconclusive: 35.5 µM [inhibitor, partial curve, poor fit]"
9,CN(C)C(=O)c1ccc(-c2cccc(-c3ccn(CC4CC4)n3)c2)o1,"inconclusive: 44.7 µM [inhibitor, partial curve]"
10,COCc1nc2nc(-c3ccccc3)c(-c3cccc([S+](C)(=O)[O-])c3)cc2n1C,"inconclusive: 28.2 µM [inhibitor, full curve]"
11,O=[S+]1([O-])N(c2ccccc2)C[C@@H](O)[C@]12CCN(Cc1ccc(C(F)(F)F)nc1)C2,"inconclusive: 39.8 µM [inhibitor, partial curve, poor fit]"
12,O=C(NCC(F)(F)F)C1CCN(Cc2ccccc2-c2ccccc2F)CC1,inactive
13,Cc1ccc(C(=O)N2CCc3nc(C)nc(-c4ccc(Cl)cc4)c3CC2)cc1,"inconclusive: 70.8 µM [inhibitor, partial curve, poor fit]"
14,Cc1c(NC(=O)CCc2cc3n(n2)CCNC3)cccc1-c1nncn1C,inactive
15,O=C(NC[C@H]1O[C@@H](Cc2nc(-c3ccc(OC(F)(F)F)cc3)no2)[C@H](O)[C@@H]1O)C1CC1,"inconclusive: 44.7 µM [inhibitor, partial curve, poor fit]"
16,CC(=O)NCCNC[C@@H]1C=C(C)[C@H](Cc2nnc(-c3ccc(C)cc3)o2)C[C@H]1C(C)C,active: 39.8 µM
17,CC(C)CCN1CCCC2(CC(c3cccc(C(F)(F)F)c3)=NO2)C1 (configuration not stated),"inconclusive: 50.1 µM [inhibitor, partial curve, poor fit]"
18,Cc1cccc(CN2CCCC3(CCN(Cc4cccc(O)c4)C3)C2)c1 (configuration not stated),"inconclusive: 44.7 µM [inhibitor, partial curve, poor fit]"
19,O=C(Cc1c[nH]c2ncc(-c3ccccc3)cc12)NC1CCOCC1,"inconclusive: 100 µM [inhibitor, partial curve, poor fit]"
20,CN1C[C@@H](NS(=O)(=O)c2ccccc2)C[C@H]1c1nc(-c2ccc(F)cc2)no1,"inconclusive: 100 µM [inhibitor, partial curve, poor fit]"
21,N#Cc1ccc(CN2CCc3n[nH]c(=O)n3CC2)cc1,inactive

row,SMILES,Potency
1,CCN(CC)C(=O)c1cc2c(s1)CCC(C(=O)Nc1ccc(OC)c(F)c1)C2 (configuration not stated),"inconclusive: 31.6 µM [inhibitor, partial curve, poor fit]"
2,COc1ccc(OCC2(C)COc3ccc(C(=O)NCCN4CCOCC4)cc3N2)cc1 (configuration not stated),inactive
3,CN1CCCC1c1nc(C2CN(C(=O)CCCc3nc4ccccc4[nH]3)C2)no1 (configuration not stated),inactive
4,CC1(C(=O)NC2CC2)CCc2cnc(Nc3ccccc3)nc21 (configuration not stated),active: 28.2 µM
5,CCc1nnc(CN(C)C(=O)c2cccc(CCC(C)(C)O)c2)o1,inactive
6,COCc1ccc2c(c1)c(OC(C)(C)C(=O)N1CCOCC1)nn2Cc1cccnc1,active: 31.6 µM
7,Cc1cccc(C)c1NC(=O)N1CCC(OC2CCN(Cc3ccccc3)CC2)CC1,inactive
8,CN(C)C(=O)N1CCCC(CCc2ccccc2C(F)(F)F)C1 (configuration not stated),"inconclusive: 50.1 µM [inhibitor, partial curve, poor fit]"
9,COc1cccc(-c2cccc(C(=O)N3CCN(C(=O)c4ccccc4F)CC3)c2)c1,"inconclusive: 50.1 µM [inhibitor, partial curve, poor fit]"
10,COc1ccc(Nc2ccnc(N3CCC(N[S+](=O)([O-])c4ccccc4)CC3)n2)cc1,"inconclusive: 44.7 µM [inhibitor, partial curve, poor fit]"
11,Fc1ccc(C2Cn3nnc(-c4nc(C5CCCCC5)no4)c3CO2)cc1 (configuration not stated),inactive
12,CC(=O)Nc1ccccc1-c1c(C)nn2c1N(C(=O)Cc1cccc(Cl)c1)CCC2,"inconclusive: 112 µM [inhibitor, single point]"
13,CC1=C[C@@H](CN2CCOCC2)[C@H](C(C)C)C[C@H]1Cc1nnc(C)o1,inactive
14,COc1cccc(CN(C)C2CCc3ccccc32)c1 (configuration not stated),"inconclusive: 79.4 µM [inhibitor, partial curve, poor fit]"
15,Cc1ccsc1C(=O)N1CCCN(C)c2ccccc21,"inconclusive: 50.1 µM [inhibitor, single point]"
16,Cc1oc2c(c1C(=O)NC1CCN(C)CC1)CN(Cc1ccc(F)cc1)CC2,"inconclusive: 50.1 µM [inhibitor, partial curve, poor fit]"
17,CSc1cccc(NC(=O)Cn2ccn3nc4c(c3c2=O)CCCCC4)c1,inactive
18,COc1ccc(-c2cccc(C(=O)NCc3ccc(F)cc3)c2)nn1,"inconclusive: 44.7 µM [inhibitor, partial curve, poor fit]"
19,COc1ccc(-c2nc(C3CC(=O)N(c4ccc(F)c(Cl)c4)C3)no2)cc1OC (configuration not stated),"inconclusive: 50.1 µM [inhibitor, partial curve, poor fit]"
20,O=C1NCCCN1C1CCN(Cc2ccncc2)CC1,inactive
21,COc1cccc(CC(=O)N2[C@@H]3CC[C@H]2CC(NC(=O)c2ccc(F)cc2)C3)c1 (some centres not stated),inactive
